Some of the results follow.
B1: chr17:45760540:45760541:+_ENSG00000108424_ENST00000290158|hu_mus|FALSE|FALSE (ssRNA)
RNA: GGGAGUUCUACAGUCCGACGAUCGCGCUGACCAUUCGUCAGUGUUUUCCCUAGAGUAAUUAAAAUGAAACCAAACCAAACCUAAACAGCGUCUUUCCUCAUUUAAAAAAAAAACACGUCUCUUGUGCUGCAUCAGUAGCCAGACAACAGAGGAUUGAGCAUCA
B2: chr11:46405157:46405158:+_ENSG00000110492_ENST00000395566|hu_hu|hu_hu_hu_mus_False|88_98 (ssRNA)
RNA: GGGAGUUCUACAGUCCGACGAUCCCCUCCCCACUUUGGCUGGGGAGUGAGAGGGACAGAGGACAGGCGUGAUUGACAGAGCUGACAGGAAGACAAAAGGCACUGGUGGGUUAUAUCUUGGGCCUGUGGGAGAGGAGGGCUCCGCAACAGAGGAUUGAGCAUCA
B3: chr6:119226881:119226882:+_ENSG00000111875_ENST00000229595|hu_mus|FALSE|FALSE (ssRNA)
RNA: GGGAGUUCUACAGUCCGACGAUCUGGGUUUUCCCUUAAUUCUGUUUCAGUGUAUUCAUUAUUUACAUAGUAGCCAACUCUAAUAAAUUCUUGACCUCGGUAGGUGCAAGUAAUCAGAACAACUGUUACCCCCACUGCAUCUGCCAACAGAGGAUUGAGCAUCA
B4: 21032951_21033071_225_5pUTR_ENSG00000101782_ENST00000339486|human|control|control (ssRNA)
RNA: GGGAGUUCUACAGUCCGACGAUCGGCAGGGCAGGGCAAGAACUGGGUGUGGCUUCCUUUGGCCCAGGCUCUGCCCUGUCCCCGCACUGCCAUCUCCUUCUUUCCUCCUUGGCACCCCAAAAAUUGCCGCUGGAUCUAAACUAGCAACAGAGGAUUGAGCAUCA
B5: 44323887_44324007_894_CDS_ENSG00000160194_ENST00000354250|human|control|control (ssRNA)
RNA: GGGAGUUCUACAGUCCGACGAUCUGUGUGGACAGGUAAGGGUCCUUUAACUUCAAAUGGCUUUUGGCUUUCUUUAUCUAUUUCAUUUAAUCUAAAUGUUUUCUGCAAUUGUUUUUCCUUUAAACUUUGCUUCAAAAACUCUUCCAACAGAGGAUUGAGCAUCA
B6: 84052462_84056824_1226_CDS_ENSMUSG00000020532_ENSMUST00000020843|mouse|control|control (ssRNA)
RNA: GGGAGUUCUACAGUCCGACGAUCCCCAGCACUCACAUAACCAACCAUUUUGGCAAGUUUCACUGCACACUGUUCCAUGUGUUCAAAUACUGCUGGGGUAGCAAUCGCAGCAGGAGCUUCUUCAAUGAUCUUCUGAUGCCUGCGCAACAGAGGAUUGAGCAUCA
B7: chr2:198267338:198267339:-_ENSG00000115524_ENST00000335508|hu_hu|FALSE|FALSE (ssRNA)
RNA: GGGAGUUCUACAGUCCGACGAUCAAUGAUUUCAACUAAACUUCUAAGAUGUGGCAAGAUGGCACAGCCCAUAAGAAUAGCUAUCUGUUGUACAAUCUUAAUACCAGUGUGUCUCGCUUGCCAGGACUUCUUGCUUUUGCACACCAACAGAGGAUUGAGCAUCA
B8: 33730633_33731758_2336_CDS_ENSMUSG00000075254_ENSMUST00000152782|mouse|control|control (ssRNA)
RNA: GGGAGUUCUACAGUCCGACGAUCGCAGGUGAACGAUCCCUGAGUAUUGUUGCACGUGGCUAGGGGAGGACAGGGGCUGGAGAGACAUUCGUUCACAUCCACACUGCAGUUCUCCCCCUGCCAGGCAGGCGGGCACACACAUCGCAACAGAGGAUUGAGCAUCA
B9: chr2:42510052:42510053:+_ENSG00000143924_ENST00000318522|hu_hu|FALSE|FALSE (ssRNA)
RNA: GGGAGUUCUACAGUCCGACGAUCACAGUCUGUAUGGCCCAGGUAGUGUCGCUGAGUUCUCUCCUCAUAAUUAAAUAGUACUACUACUGAUGCAAUGAAAUAAACUAUUUUCCCGGUCGGAAGAAGGUAAACAUUAGCUCUACACAACAGAGGAUUGAGCAUCA
B10: 104627916_104628036_2582_CDS_ENSMUSG00000074994_ENSMUST00000117237|mouse|control|control (ssRNA)
RNA: GGGAGUUCUACAGUCCGACGAUCUAAAAUAUUUCUUUCAUCACUGAGAAGCAUUGCCUCUGAGAAGCAUAUUGAUCCAAGAGAAACAAACUGAUUCUUUGAGUCAUGUGGAUUGGCUUCACUGAAGGGGCCCUUUGUUGUUAGCAACAGAGGAUUGAGCAUCA
B11: chr12:89743083:89743084:-_ENSG00000139318_ENST00000308385|hu_hu|FALSE|FALSE (ssRNA)
RNA: GGGAGUUCUACAGUCCGACGAUCCUUUCACGUAGAUUGCAGAGAGUCCACCUGGUAUACAUUCUGGUUGGAAGGGGUGGUAAAAUACAGCUGCUGUGCUGGAACCCUGUUGUCACAUGGGCUGCUGAGUCCCAGCGUCCUCUCCAACAGAGGAUUGAGCAUCA
B12: chr7:100804371:100804372:+_ENSG00000106367_ENST00000337619|hu_hu|FALSE|FALSE (ssRNA)
RNA: GGGAGUUCUACAGUCCGACGAUCCUUGCCCUUCCCCCAACCCUUCCUUCCCUCAAAGUGGCAAGGUUAGAAAAAAAUUAACUAUGUUGUUCCUCCCUGGCACUGGAUAAAGGCCCCACUGCAGCCAAGGAGAAAGAGGGGGGUCAACAGAGGAUUGAGCAUCA
B13: chr1:111986530:111986531:-_ENSG00000116455_ENST00000235090|hu_mus|FALSE|FALSE (ssRNA)
RNA: GGGAGUUCUACAGUCCGACGAUCAUUGCAGGCCAUCUGUGAUGCCGGCUUGGGACAGCGGGUAUCCCAGAGCAAAAUUCUACUGUCCUCACUACAUGAAAGAAACACAGAGUCUUUGUGGGGAGAGGCAGCAACACAGGUAACCAACAGAGGAUUGAGCAUCA
B14: chr2:148701126:148701127:-_ENSMUSG00000027447_ENSMUST00000028938|mus_hu|FALSE|FALSE (ssRNA)
RNA: GGGAGUUCUACAGUCCGACGAUCGGACGCGGGGAGUGGGGCGCAGGCGAGAGGCUGGAGCUAGAUAGAGAGGACCCGCUGCGAUACCGAGGCGAGGCCGUGAGCCCCGCGAGGCCGGCGACUGCGGUUUUAUCCCUUCCGGCCCAACAGAGGAUUGAGCAUCA

Target: T1, UNK ZnF1-3 (human, UniProt Q9C0B0 31-174)
T1 sequence: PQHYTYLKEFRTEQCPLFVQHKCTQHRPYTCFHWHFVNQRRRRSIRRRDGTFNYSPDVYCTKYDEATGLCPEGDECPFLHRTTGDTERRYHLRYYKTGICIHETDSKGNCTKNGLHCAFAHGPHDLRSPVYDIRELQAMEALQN
Assay: nsRBNS (natural sequence RNA bind-n-seq); RBNS binding buffer (assumed for nsRBNS): 25 mM Tris pH 7.5, 150 mM KCl, 3 mM MgCl2, 0.01% Triton X-100, 500 ug/ml BSA, 20 U/ml SUPERase-In, 4 C; UNK is unkempt and MSI1 is Musashi-1; names of the RNAs are library labels; protein concentration not given here; high values mean tight binding

Binder | binding signal
B1 | 1.36 enrichment R
B2 | 2.39 enrichment R
B3 | 0.875 enrichment R
B4 | 1.03 enrichment R
B5 | 0.377 enrichment R
B6 | 0.711 enrichment R
B7 | 0.612 enrichment R
B8 | 0.575 enrichment R
B9 | 1.16 enrichment R
B10 | 1.01 enrichment R
B11 | 0.91 enrichment R
B12 | 1.86 enrichment R
B13 | 1.34 enrichment R
B14 | 0.894 enrichment R

From publication PMC12136788
